# Data: PubChem BioAssay (NCATS)
# Several values for one entry are separate records, joined by “and”; a condition that tells them apart may be missing. Equal values may be shown once. The list shows a part of the results. The main result of the screen is listed elsewhere. These columns were measured beside it and carry no call. For some assays here: Most of these compounds were active or inconclusive in the main read-out, so they are no random draw. For some assays here: Words in brackets tell the shape of the fitted curve; partial curves, single points and poor fits give uncertain potencies.
# How the values were obtained:
# [1] = qHTS Assay for Lipid Storage Modulators (AID 1519); settings: Drosophila S3 cells, BODIPY lipid droplet/cell ratio, laser cytometry, cells loaded with oleic acid
# Method in brief: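 Cells seeded at 5,000 per well were treated with compounds over a concentration series and loaded with oleic acid (400 uM, as added). Lipid droplet fluorescence (488 nm excitation, 500-530 nm channel) was read by laser-scanning cytometry and normalized to 20 uM Triacsin C.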
# [2] = S16 Schwann cell PMP22 intronic element beta-lactamase assay (AID 624044); settings: S16 rat Schwann cells, PMP22 element beta-lactamase FRET, 24 h; measured here: 460 nm blue channel; further: nearly all actives have a fitted effect of over 15% in size
# Method in brief: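 Rat S16 Schwann cells with beta-Lac driven by a PMP22 intronic element, compound-treated 24 h at 37 °C. LiveBLAzer FRET B/G read: 460 nm normalized to potassium clavulanate vs DMSO; 535 nm FRET as viability; concentration-effect curves classified.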
# [3] = molecular target: Catechol O-methyltransferase (Homo sapiens) (UniProt P21964); assay: Confirmatory Screen for Target Class Profiling of Small Molecule Inhibitors of Methyltransferases (AID 1745852); settings: MTase-Glo luminescence, SAH detection, recombinant enzyme; measured here: COMT inhibition potency;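 further: inhibitor potency for blocking SAH production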
# Chain of UniProt P21964 (P21964 whole entry, looked up): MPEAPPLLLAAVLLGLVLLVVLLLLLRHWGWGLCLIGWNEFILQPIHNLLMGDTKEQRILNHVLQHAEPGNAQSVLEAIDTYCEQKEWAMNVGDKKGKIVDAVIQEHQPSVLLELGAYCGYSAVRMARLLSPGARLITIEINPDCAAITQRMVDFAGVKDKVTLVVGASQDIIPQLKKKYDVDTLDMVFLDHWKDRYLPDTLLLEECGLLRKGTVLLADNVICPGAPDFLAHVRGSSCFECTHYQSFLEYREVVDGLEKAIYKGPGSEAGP
# [4] = molecular target: Histamine N-methyltransferase (Homo sapiens) (UniProt P50135); assay: as above; settings: MTase-Glo luminescence, SAH detection, recombinant enzyme; measured here: HNMT inhibition potency
# Chain of UniProt P50135 (P50135 whole entry, looked up): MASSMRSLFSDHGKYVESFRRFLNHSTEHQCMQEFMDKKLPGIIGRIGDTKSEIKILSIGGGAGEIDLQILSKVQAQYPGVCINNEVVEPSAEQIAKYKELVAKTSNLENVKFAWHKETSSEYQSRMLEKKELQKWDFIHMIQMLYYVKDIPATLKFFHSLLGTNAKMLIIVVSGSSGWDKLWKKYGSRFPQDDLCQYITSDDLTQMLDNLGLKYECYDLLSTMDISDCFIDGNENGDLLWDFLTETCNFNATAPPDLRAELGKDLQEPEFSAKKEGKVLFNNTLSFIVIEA
# [5] = molecular target: Nicotinamide N-methyltransferase (Homo sapiens) (UniProt P40261); assay: as above; settings: MTase-Glo luminescence, SAH detection, recombinant enzyme; measured here: NNMT inhibition potency
# Chain of UniProt P40261 (P40261 whole entry, looked up): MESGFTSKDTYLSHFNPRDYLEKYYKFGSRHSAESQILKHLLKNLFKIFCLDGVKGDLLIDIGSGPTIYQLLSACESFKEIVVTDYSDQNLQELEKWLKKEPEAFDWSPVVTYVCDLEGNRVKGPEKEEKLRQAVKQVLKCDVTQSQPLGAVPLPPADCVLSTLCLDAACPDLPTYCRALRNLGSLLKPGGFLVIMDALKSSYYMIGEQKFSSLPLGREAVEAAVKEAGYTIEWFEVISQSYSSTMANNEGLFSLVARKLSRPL
# [6] = molecular target: Phenylethanolamine N-methyltransferase (Homo sapiens) (UniProt P11086); assay: as above; settings: MTase-Glo luminescence, SAH detection, recombinant enzyme; measured here: PNMT inhibition potency
# Chain of UniProt P11086 (P11086 whole entry, looked up): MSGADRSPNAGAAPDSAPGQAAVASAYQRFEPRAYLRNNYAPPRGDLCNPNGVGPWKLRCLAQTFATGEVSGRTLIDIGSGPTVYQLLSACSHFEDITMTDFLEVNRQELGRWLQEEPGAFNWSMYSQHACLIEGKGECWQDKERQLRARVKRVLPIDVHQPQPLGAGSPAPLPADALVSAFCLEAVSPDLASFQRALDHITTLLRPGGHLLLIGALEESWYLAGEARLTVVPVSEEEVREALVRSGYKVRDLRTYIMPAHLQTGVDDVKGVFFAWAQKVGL
# [7] = qHTS assay for small molecule antagonists of glucocorticoid receptor signaling (AID 588533); settings: HeLa MMTV-bla, GRE beta-lactamase ratio, antagonist mode, 18 h; measured here: W530 channel AC50;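 further: cells stimulated with 2 nM dexamethasone as agonist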
# [8] = qHTS assay for small molecule antagonists of peroxisome proliferator-activated receptor delta signaling (AID 588535); settings: HEK293T PPARd-UAS-bla, beta-lactamase FRET ratio, 18 h; 460 nm channel;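 further: cells co-treated with a PPAR-delta agonist as stimulator during compound exposure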
# Method in brief: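 GeneBLAzer PPAR-delta-UAS-bla HEK293T cells in medium with 2% charcoal/dextran FBS were preincubated 5 hrs at 37 C, then given compounds, incubated 18 hrs at 37 C, and read by CCF4 beta-lactamase fluorescence; IC50 from Hill fits.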
# [9] = qHTS assay for small molecule antagonists of peroxisome proliferator-activated receptor gamma signaling (AID 588537); settings: HEK293 PPARg-UAS-bla, beta-lactamase ratio, antagonist mode; measured here: W460 blue channel
# Method in brief: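 PPAR-gamma-UAS-bla HEK293 cells (3000/well, 1% charcoal/dextran-stripped FBS) were preincubated 6-6.5 h at 37 C, given titrated compounds, then stimulated with 50 nM rosiglitazone for 16 h. Beta-lactamase activity was read with CCF4 dye; IC50 came from Hill fits.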
# [10] = qHTS assay for small molecule antagonists of vitamin D receptor signaling (AID 588541); settings: HEK293T VDR-UAS-bla, beta-lactamase ratio, antagonist mode; measured here: W460 blue channel (cell viability)
# [11] = qHTS assay for small molecule agonists of retinoid X receptor alpha signaling (AID 588544); settings: HEK293T RXRa-UAS-bla, beta-lactamase reporter, 18 h; 530 nm emission
# [12] = A High-Content qHTS Against Drug Library for the Identification of Small Molecules that Inhibit DYT1 Early Onset Primary Dystonia-Associated Cell Pathology (AID 1645839); settings: HEK293 Flp-In EGFP-delE TorsinA, punctate imaging, 48 h; measured here: cell count cytotoxicity
# Method in brief: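 Readout: %pathology, the punctate EGFP-TorsinA distribution from imaging, as the primary channel and cell count as the toxicity counterscreen. HEK293 Flp-In cells expressing delE TorsinA were induced with tetracycline and treated with compound for 48 h.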
# [13] = NCATS anti-infectives library activity on the primary C. elegans qHTS viability assay (AID 1745855); settings: C. elegans worm area imaging, day 7, day 3
# Method in brief: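 Viability is taken from GFP fluorescence of PE254-GFP-FLuc C. elegans imaged by laser cytometry over 7 days. Ten L1 worms per well grow at 21 °C on TOP10 E. coli capsules with titrated compound; levamisole marks toxicity.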
# [14] = qHTS drug screen for cell cycle checkpoint inhibitors in PARPi-resistant BRCA-mutant ovarian cancer cell lines. (AID 1963452); settings: PEO1/OlaR viability, CellTiter-Glo luminescence, 96 h
# Method in brief: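 PEO1, PEO4 and PEO1/OlaR ovarian cancer cells, 600 per well, exposed 96 h at 37C to a dilution series. Viability read by CellTiter-Glo luminescence, normalized to DMSO and empty wells; activity summarized as Z-AUC.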
# [15] = qHTS Assay for Modulators of Human Peripheral Myelin Protein 22 (PMP22) Expression/Activity (AID 1967); settings: Cell-based PMP22 reporter, dual-color luciferase ratio
# Method in brief: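 Quantitative HTS in a mouse Schwann cell line expressing dual click beetle luciferases: Pmp22 promoter (green) and control EF-alpha promoter (red). After 24h treatment, corrected green/red signal ratio gave %Activity relative to untreated cells.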
# [16] = qHTS for identification of novel therapeutic agents for treatment of microphthalmiaassociated transcription factor (MiT) renal cell carcinoma (RCC) (AID 1963991); settings: CellTiter-Glo, 48 h; for z-score: stronger effect = lower value
# Method in brief: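 Curves over 11 concentrations were fitted to CellTiter-Glo luminescence, scaled between empty wells (0%) and DMSO (100%) viability. Cells were UOK109, UOK124 and UOK145 TFE3-fusion RCC lines at 500/well, exposed 48 hours at 37 C.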
# [17] = qHTS Validation Assay to Find Inhibitors of Chronic Active B-Cell Receptor Signaling (AID 485345); settings: ABC-DLBCL cells, chronic BCR signaling reporter
# Method in brief: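 TMD8 ABC-DLBCL cells with dox-inducible green luciferase–IκBα fusion and red native luciferase; compounds 46 uM–3 nM, 4 h at 37C with doxycycline in 0.5% FBS IMDM. Green/red ratio normalized to basal and 10 uM MG-132.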
# [18] = qHTS assay for small molecule antagonists of androgen receptor signaling (AID 588516); settings: AR-UAS-bla HEK293, beta-lactamase ratio, antagonist mode, 16 h; measured here: W460 blue channel fit
# Method in brief: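 Antagonist-mode qHTS: inhibition of R1881 (10 nM)-driven beta-lactamase expression in GripTite HEK 293 cells is measured after 16 h; values are Hill-derived IC50s normalized between R1881 and DMSO wells.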
# [19] = qHTS assay for small molecule antagonists of retinoid X receptor alpha signaling (AID 588546); settings: HEK293T RXRa-UAS-bla, beta-lactamase ratio, antagonist mode; measured here: W530 green channel, cytotoxicity proxy;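 further: cells stimulated with 9-cis-retinoic acid as agonist; on the % scale 0 is the no-effect control and ±100 the full control effect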
# Method in brief: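 Beta-lactamase reporter inhibition, read as CCF4 fluorescence ratio (ex 405, em 460/530 nm) after 2 h at RT. HEK293T UAS-bla cells, 2500/well, were stimulated with 9-cis-RA at 500 or 100 nM final alongside test compound for 18 h at 37 C.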
# [20] = measured here: cell count channel max response
# [21] = measured here: cell number channel AC50
# [22] = measured here: lipid (BODIPY) channel AC50
# [23] = measured here: lipid channel max response
# [24] = measured here: PEO1 parental viability
# [25] = measured here: red reporter channel AC50, EF-alpha promoter control reporter in MSC80 mouse Schwann cells
# [26] = measured here: green reporter channel AC50, mouse Pmp22 promoter in mouse Schwann cells
# Tags describe the fitted curve by direction and shape.
smiles,measurement,setting,value
COc1ccc(C2C(=O)c3ccccc3C2=O)cc1,max response,[1]; [20],31%
same,AC50,[1]; [21],"22.4 µM [rising, single point]"
same,AC50,[1]; [22],"39.8 µM [rising, single point]"
same,max response,[1]; [23],61.6%
same,AC50,[2],"1.78 µM [falling, partial curve, poor fit]"
Nc1ncnc2c1c(I)cn2C1OC(CO)C(O)C1O (configuration not stated),max response,[1]; [20],-21.2%
same,AC50,[1]; [22],"7.94 µM [falling, full curve]"
same,max response,[1]; [23],-49.3%
same,IC50,[3],"10.8 µM [falling, full curve]"
same,IC50,[4],"10.8 µM [falling, full curve]"
same,IC50,[5],"12.1 µM [falling, full curve]"
same,IC50,[6],"10.8 µM [falling, full curve]"
COc1cccc2c1C(=O)c1c(O)c3c(c(O)c1C2=O)C[C@@](O)(C(C)=O)C[C@@H]3O[C@H]1C[C@H](N)[C@H](O)[C@H](C)O1,max response,[1]; [20],-31.1%
same,AC50,[1]; [22],"1 µM [falling, full curve, poor fit]"
same,max response,[1]; [23],-95.1%
same,AC50,[7],"2.51 µM [falling, full curve]"
same,max response,[8],-132%
same,AC50,[9],"8.91 µM [falling, full curve]"
same,AC50,[10],"8.91 µM [falling, full curve, poor fit]"
same,max response,[11],-18.2%
same,AC50,[2],"0.178 µM [falling, full curve]"
same,AC50,[12],"35.5 µM [falling, partial curve, poor fit]"
same,AC50,[13]; measured here: worm area,"0.0816 µM [falling, full curve, poor fit]"
same,AC50,[14]; [24],"0.155 µM [falling, full curve]"
same,AC50,[14]; measured here: PEO4 viability,"0.436 µM [falling, full curve]"
CN1CCC(=C2c3ccccc3CC(=O)c3sccc32)CC1,max response,[1]; [20],21.5%
same,AC50,[1]; [22],"28.2 µM [rising, partial curve, poor fit] and 22.4 µM [rising, partial curve]"
same,max response,[1]; [23],50% and 37.7%
same,AC50,[15]; [25],"75.7 µM [falling, single point]"
same,AC50,[12],"35.5 µM [falling, single point]"
same,z-score,"[16]; TFE3-RCC UOK109 viability, measured here: UOK109 Z-AUC",-0.261
same,z-score,"[16]; TFE3-RCC viability, measured here: UOK124 Z-AUC",-0.24
same,AC50,"[16]; TFE3-RCC viability, measured here: UOK124 cell viability","18.7 µM [falling, partial curve]"
same,z-score,"[16]; TFE3-RCC viability, measured here: UOK145 Z-AUC",-0.489
same,AC50,"[16]; TFE3-RCC viability, measured here: UOK145 cell viability","26.4 µM [falling, single point]"
CN(C)CCOC(c1ccc(Cl)cc1)c1ccccn1 (configuration not stated),max response,[1]; [20],25.7%
same,AC50,[1]; [22],"35.5 µM [rising, single point]"
same,max response,[1]; [23],41.1%
same,AC50,[12],"35.5 µM [falling, single point]"
N#C/C(=C\c1ccc(O)c(O)c1)C(=O)NCc1ccccc1,max response,[1]; [20],64.5% and 50.2%
same,AC50,[1]; [21],"31.6 µM [rising, partial curve, poor fit]"
same,max response,[1]; [23],15.7% and 51.9%
same,AC50,[15]; [25],"33.8 µM [falling, partial curve, poor fit]"
same,AC50,[14]; [24],"27.5 µM [falling, partial curve, poor fit]"
same,AC50,[14]; measured here: PEO4 viability,"24.5 µM [falling, single point]"
CCCCOC(=O)c1ccc(N)cc1,max response,[1]; [20],25.2%
same,AC50,[1]; [22],"20 µM [rising, partial curve, poor fit]"
same,max response,[1]; [23],50.7%
same,max response,[8],2.43%
same,AC50,[9],"17.8 µM [falling, partial curve, poor fit]"
same,AC50,[12],"1.41 µM [falling, full curve, poor fit]"
C[C@H](NC(=O)/C(C#N)=C/c1ccc(O)c(O)c1)c1ccccc1,max response,[1]; [20],72.4% and 30.5%
same,AC50,[1]; [21],"31.6 µM [rising, partial curve, poor fit] and 25.1 µM [falling, partial curve, poor fit]"
same,max response,[1]; [23],6.93% and 29.1%
same,AC50,[15]; [25],"37.9 µM [falling, partial curve, poor fit]"
same,IC50,[3],"12.2 µM [rising, full curve]"
same,IC50,[5],"27.3 µM [falling, partial curve]"
OC(CCN1CCCCC1)(c1ccccc1)C1CCCCC1 (configuration not stated),max response,[1]; [20],23.4%
same,AC50,[1]; [22],"39.8 µM [rising, single point]"
same,max response,[1]; [23],34.6%
same,AC50,[15]; [26],"75.7 µM [falling, partial curve]"
same,AC50,[15]; [25],"95.3 µM [falling, single point]"
same,AC50,[17]; measured here: CBR control luciferase (viability counter),"3.66 µM [falling, full curve]"
same,AC50,[12],"11.2 µM [falling, partial curve, poor fit]"
Nc1nc(N)c2nc(-c3ccccc3)c(N)nc2n1,max response,[1]; [20],18.4%
same,AC50,[1]; [22],"20 µM [rising, partial curve, poor fit]"
same,max response,[1]; [23],32.2%
same,AC50,[15]; [26],"84.9 µM [falling, single point]"
same,AC50,[15]; [25],"30.1 µM [falling, partial curve, poor fit]"
same,AC50,[17]; measured here: CBG/CBR ratio read-out,"11.6 µM [falling, partial curve]"
same,AC50,[18],"44.7 µM [rising, partial curve] and 28.2 µM [rising, partial curve]"
same,max response,[8],991% and 512%
same,AC50,[10],"31.6 µM [rising, partial curve] and 35.5 µM [rising, partial curve]"
same,max response,[11],81.1% and 36.5%
same,max response,[19],56.1% and 52.3%
same,AC50,[12],"1.26 µM [rising, partial curve, poor fit]"
same,AC50,[13]; measured here: worm number,"25.8 µM [falling, single point]"
